# Among all 320,000 compounds or so, about 9,100 (2.8%) were called active. Inconclusive results, whose numbers are uncertain, are shown with a selection of clear calls. Calls follow the shape of the dose curve; as a rule, active = well fitted activation curve with a large enough effect; inconclusive = small, poorly fitted or top-dose-only effect; inactive = no such curve, though single readings can be large or run the other way. Potencies of inconclusive entries are left out as doubtful fits.
# Assay: qHTS Assay for Rab9 Promoter Activators; also: nearly all actives have a fitted effect of over 60% in size
# Settings: Huh7 Rab9 promoter-luciferase reporter, luminescence, 24 h; series mostly up to 9.22 µM
# Method in brief: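 Quantitative HTS format; Huh7 Rab9-luciferase reporter cells (1500/well) receive compound 2 h post-plating, incubate 24 h at 37 °C, then get luciferase reagent for 10 min before luminescence reading.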
# Potency is read from the fitted curve at half-maximal effect; tags tell the direction and shape of the fitted curve.
row,SMILES,Potency
1,CC(=O)C1=C(S(=O)(=O)c2ccc(C)cc2)CS(=O)(=O)C1,inactive
2,Cc1cc(NCc2ccccn2)ccc1Br,"inconclusive [activator, partial curve]"
3,Cc1cc(Cl)c(O)c(-n2nc3ccccc3n2)c1,"inconclusive [activator, single point]"
4,COc1ccccc1Oc1cn[nH]c1-c1ccc(OCC(=O)NN)cc1O,inactive
5,Nc1nc(NC(=O)c2cccs2)nn1-c1ccccc1,active: 2.51 µM
6,O=C(O)c1cc(-c2ccc(-c3ccc(F)cc3)o2)nc2ccccc12,active: 0.891 µM
7,COC(=O)CCC(=O)N1CCCC(CO)(Cc2ccccc2)C1 (stereo not drawn),"inconclusive [activator, partial curve]"
8,Cc1cc(N=Nc2ccc3ccccc3c2)ccc1O,"inconclusive [activator, partial curve]"
9,C=CCN(CC(=O)O)S(=O)(=O)c1ccccc1C(F)(F)F,"inconclusive [activator, single point]"
10,CCOC(=O)c1c(CN2CCOCC2)n(-c2ccccc2)c2cc(Br)c(OC)cc12,inactive
11,CCN(CC)S(=O)(=O)c1ccc(C)c(NC(=O)CNCCN(C(C)C)C(C)C)c1,inactive
12,CC(=O)c1ccc(NC(=O)CSc2nnc3ccc(-c4ccccn4)nn23)cc1,inactive
13,O=C1c2ccccc2C(=O)N1CCN1CCc2ccccc21,"inconclusive [activator, partial curve]"
14,Cc1csc(SCC(=O)Nc2sccc2C(N)=O)n1,"inconclusive [activator, single point]"
15,CC(=O)Nc1ccc(Nc2nc(C)cc(C)n2)cc1,inactive
16,Cn1c(=NC(=O)c2cnccn2)sc2ccccc21,"inconclusive [activator, partial curve]"
17,O=C(CN(c1ccc(Cl)cc1)S(=O)(=O)c1ccc(Cl)c([N+](=O)[O-])c1)NCCc1ccccc1,"inconclusive [activator, single point]"
18,Cc1ccc(-c2cc3c(N=O)c4ccccc4c-3n[nH]2)cc1,"inconclusive [activator, partial curve]"
19,CCCCCCCCCCCCCCCCCC(=O)OC(CC(=O)O)C[N+](C)(C)C (stereo not drawn),inactive
20,Cc1ccc(NC(=O)c2ccc3snnc3c2)cc1C,"inconclusive [activator, single point]"
21,CCOc1ccc2nc(/N=C/c3c(C)[nH]n(-c4ccc(C)cc4)c3=O)sc2c1,"inconclusive [activator, single point]"
22,COc1cccc(CN2CC(C(=O)NCCc3ccccc3C(F)(F)F)CCC2=O)c1 (stereo not drawn),inactive
23,CC(=O)N1CCN(CC(=O)Nc2c(Cl)cc(Cl)cc2Cl)CC1,inactive
24,O=C(Nc1ccc(N2CCCCC2)cc1)c1ccc(F)cc1,active: 0.447 µM
25,COc1ccccc1N1CCN(Cc2nc(N)nc(Nc3ccc(C)c(Cl)c3)n2)CC1,inactive
26,CNC(=S)N/N=C/c1ccc(N(C)C)cc1,active: 2.82 µM

row,SMILES,Potency
1,COc1ccccc1NC(=O)c1ccc2nc(C)sc2c1,"inconclusive [activator, full curve]"
2,Cc1cccn2cc(-c3c[nH]c4ccccc34)nc12,"inconclusive [activator, single point]"
3,N/C(=N\OC(=O)c1ccco1)c1ccc(Br)cc1,"inconclusive [activator, partial curve]"
4,Cc1ccc(NC(=O)CCc2c(C)nn(-c3ccc(N4CCOCC4)nn3)c2C)c(C)c1,inactive
5,CC(C)(C)OC(=O)NC1CCN(S(=O)(=O)c2ccc3c(c2)OCCO3)CC1,inactive
6,Cn1c(=N)n(CC(=O)c2ccc(F)cc2)c2ccccc21,active: 0.891 µM
7,O=C(Nc1cccs1)Nc1ccc(F)cc1F,"inconclusive [activator, single point]"
8,C/C(=N\OC(=O)c1cccc(C(F)(F)F)c1)c1sc(-c2ccccc2)nc1C,active: 3.98 µM
9,Cc1ccccc1NC(=O)c1nnn(-c2ccc3c(c2)OCCO3)c1N,active: 0.891 µM
10,C/C(=N\NC(=O)c1cc(-c2cccc(OC(C)C)c2)nc2ccccc12)c1cccnc1,"inconclusive [activator, partial curve]"
11,CCOC(=O)c1c(S(=O)(=O)N2CCN(Cc3ccccc3)CC2)c(C)n(C)c1C,inactive
12,Cc1ccc(NC(=O)c2ccc(OC(=O)c3cc4ccccc4o3)cc2)cc1,active: 2 µM
13,Cc1cc(N2CCOCC2)nc2ccc(NC(=O)C3CCC(C)CC3)cc12 (stereo not drawn),inactive
14,COc1cc2c(cc1NC(=O)COC(=O)Cn1cnc3ccccc31)oc1ccccc12,"inconclusive [activator, single point]"
15,C(=C\c1ccco1)/c1ccc2ccccc2n1,active: 3.98 µM
16,O=C(Nc1cc(C(F)(F)F)ccc1N1CCOCC1)c1ccc(Cl)nc1,inactive
17,CCC(Oc1ccccc1)C(=O)N(CC)CC(=O)NCc1ccc(F)cc1 (stereo not drawn),inactive
18,COc1cccc(-c2nnc(-c3ccc(C(F)(F)F)cc3)o2)c1OC,"inconclusive [activator, single point]"
19,C=CCN(C(=O)CCC(=O)Nc1cc(C)on1)C(C(=O)NC1CCCC1)c1ccc(CC)cc1 (stereo not drawn),inactive
20,Cc1nc(NCCc2cnc[nH]2)c2oc3ccccc3c2n1,"inconclusive [activator, single point]"
21,CC1(C(=O)OCC(=O)Nc2ccccc2)CC1(Cl)Cl (stereo not drawn),"inconclusive [activator, single point]"
22,O=C(c1ccc(-c2nc3ccccc3s2)o1)N1CCN(c2ccccc2O)CC1,"inconclusive [activator, single point]"
23,CCOC(=O)N1CCN(C(=O)CSc2nc3c([nH]c4ccccc43)c(=O)n2C)CC1,inactive
24,O=C(O)c1ccccc1Nc1ccccc1C(=O)O,inactive
25,Cc1ccc(Oc2nc3ccccn3c(=O)c2/C=C(\C#N)C(=O)Nc2c(C)n(C)n(-c3ccccc3)c2=O)c(C)c1,"inconclusive [activator, single point]"
26,CC(C)NS(=O)(=O)c1ccc(OCC(=O)Nc2cccc(F)c2)cc1,inactive

row,SMILES,Potency
1,Nc1nc2ccccc2n1/N=C/c1ccc(Br)cc1,"inconclusive [activator, partial curve]"
2,CCCC(=O)Oc1ccc(-c2nccc(C(OC)OC)n2)cc1,"inconclusive [activator, single point]"
3,Cc1cc(/C=N/NC(=O)c2ccc(O)cc2)c(C)n1CC(C)C,"inconclusive [activator, partial curve]"
4,Cc1ccccc1NC(=O)COc1ccc2c(c1)OC(C)(C)CC2=O,"inconclusive [activator, partial curve]"
5,O=C(Nc1ccc(Cl)cc1)Nc1ccccc1Sc1ncc([N+](=O)[O-])s1,"inconclusive [activator, partial curve, poor fit]"
6,O=C1CCCCC1Sc1nnc(-c2ccc3c(c2)OCO3)o1 (stereo not drawn),active: 0.1 µM
7,CCc1cccc(NC(=S)N2CCC(c3ccccc3)C2)c1 (stereo not drawn),"inconclusive [activator, partial curve]"
8,CCC1CN(C)C2Cc3c([nH]c4ccccc34)C(=O)CC1C2C(=O)OC (stereo not drawn),"inconclusive [activator, single point]"
9,COc1ccccc1NC(=O)CN1CCN(CC(=O)Nc2ccc(F)cc2F)CC1,"inconclusive [activator, partial curve]"
10,CCn1ccnc1CN(C)Cc1nc(-c2ccc3c(c2)OCO3)no1,"inconclusive [activator, single point]"
11,O=C(c1ccc(-c2ccccc2Cl)o1)N1CCCC(C(F)(F)F)C1 (stereo not drawn),"inconclusive [activator, partial curve]"
12,Cn1c(=N)n(CC(=O)C(C)(C)C)c2ccccc21,"inconclusive [activator, single point]"
13,O=C(NCc1ccccc1)c1ccc(-c2ccccc2F)o1,"inconclusive [activator, partial curve]"
14,Cc1csc(SCC(=O)NC(=O)C2CCCCC2)n1,inactive
15,O=C(COc1ccccc1Cl)Nc1ccccc1C(=O)Nc1cccc(C(=O)O)c1,"inconclusive [activator, partial curve]"
16,Nc1nonc1-n1nnc(C(=O)N/N=C/c2ccccc2Br)c1CN1CCCC1,inactive
17,O=C(COc1ccc(-c2ccccc2)cc1)N1CCCC1,inactive
18,Cc1cccc(NC(=O)c2ccccc2O)c1C,"inconclusive [activator, single point]"
19,CC(=O)c1cccc(NC(=O)CSc2ccc(-c3ccc4c(c3)OCO4)nn2)c1,"inconclusive [activator, single point]"
20,CCC(=O)N1CCCc2cc(S(=O)(=O)CCC(=O)Nc3ccccc3C)ccc21,inactive
21,CC(=O)Nc1ccc(-c2cn3cccnc3n2)cc1,"inconclusive [activator, partial curve]"
22,O=c1c2ccccc2nc(/C=C/c2cc(Br)ccc2O)n1CCCO,inactive
23,O=C(Nc1ccc2c(c1)CCCN2C(=O)c1ccccc1)c1ccccc1,"inconclusive [activator, single point]"
24,C/C(=C\c1ccccc1)C(=O)NCCc1ccccc1,active: 0.708 µM
25,O=C(CSc1nccn1Cc1ccccc1)NC1CCCC1,inactive
26,CCn1c(C)nc2cc(C(=O)NNC(=S)Nc3ccccc3OC)ccc21,"inconclusive [activator, single point]"

# From PubChem BioAssay AID485297 (National Center for Advancing Translational Sciences (NCATS), 2010)
